The supplement of paper PMC4967469

Columns and labels:
Test in all cases: Viability of human cancer cell lines after 72 h of drug (GDSC screen)
Dabrafenib = compound: CC(C)(C)c1nc(-c2cccc(NS(=O)(=O)c3c(F)cccc3F)c2F)c(-c2ccnc(N)n2)s1 [Dabrafenib]; settings: top dose 10 µM
Experimental: (§1)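 Human cancer cell lines in 384-well plates, medium with 10% serum, drug for 72 h over a 256-fold dose range (nine 2-fold or five 4-fold steps up to the top dose). Adherent lines were fixed and stained with the nucleic acid dye Syto60, suspension lines read with resazurin; signal relative to control wells, capped at 0 and 100%. One two-parameter sigmoid per drug and line, fitted in a mixed model over all curves with the slope shared within a line.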

SN-38 = compound: CCc1c2c(nc3ccc(O)cc13)-c1cc3c(c(=O)n1C2)COC(=O)[C@]3(O)CC [SN-38]; settings: top dose 0.05 µM; top dose inferred
Experimental: as §1

Axitinib = compound: CNC(=O)c1ccccc1Sc1ccc2c(/C=C/c3ccccn3)n[nH]c2c1 [Axitinib]; settings: top dose 2 µM
Experimental: as §1

Methotrexate = compound: CN(Cc1cnc2nc(N)nc(N)c2n1)c1ccc(C(=O)N[C@@H](CCC(=O)O)C(=O)O)cc1 [Methotrexate]; settings: top dose 0.2 µM
Experimental: as §1

Cell Line	AUC (Dabrafenib)	pIC50 (Dabrafenib)	AUC (SN-38)	pIC50 (SN-38)	AUC (Axitinib)	pIC50 (Axitinib)	AUC (Methotrexate)	pIC50 (Methotrexate)
ST486 (Burkitt lymphoma, suspension)	0.989	< 5.00	0.953	< 7.30	0.818	6.01	0.671	7.45
HT (B-cell lymphoma, suspension)	0.978	< 5.00	0.872	7.39	0.987	< 5.70	0.775	7.14
NB5 (neuroblastoma, adherent)	0.953	< 5.00	0.424	8.71	0.91	< 5.70	0.982	< 6.70
KOPN-8 (B-cell leukaemia, suspension)	0.985	< 5.00	0.434	8.67	0.933	< 5.70	0.568	7.73
JEKO-1 (B-cell lymphoma, suspension)	0.932	< 5.00	0.429	8.69	0.884	< 5.70	0.578	7.69
PWR-1E (prostate, adherent)	0.984	< 5.00	0.499	8.51	0.838	5.87	0.983	< 6.70
RC-K8 (B-cell lymphoma, suspension)	0.978	< 5.00	0.975	< 7.30	0.993	< 5.70	0.918	< 6.70
NCI-SNU-5 (stomach, suspension)	0.97	< 5.00	0.642	8.11	0.965	< 5.70	0.978	< 6.70
REH (B-cell leukaemia, suspension)	0.941	< 5.00	0.392	8.80	0.979	< 5.70	0.566	7.73
SK-MEL-1 (melanoma, suspension)			0.984	< 7.30	0.993	< 5.70	0.993	< 6.70
RCH-ACV (B-cell leukaemia, suspension)	0.981	< 5.00	0.399	8.76	0.882	5.83	0.592	7.67
A101D (melanoma, adherent)	0.197	7.21	0.718	7.82	0.91	< 5.70	0.938	< 6.70
VCaP (prostate, adherent)	0.92	< 5.00	0.869	7.31	0.985	< 5.70	0.979	< 6.70
HH (T-cell leukaemia, suspension)	0.846	< 5.00	0.754	7.66	0.94	< 5.70	0.649	7.43
NCI-H716 (large intestine, suspension)	0.946	< 5.00	0.957	< 7.30	0.488	6.94	0.964	< 6.70
EB2 (Burkitt lymphoma, suspension)	0.984	< 5.00	0.501	8.50	0.99	< 5.70	0.751	7.22
SUP-M2 (anaplastic large cell lymphoma, suspension)	0.987	< 5.00	0.294	9.01	0.834	6.05	0.306	8.38
JM1 (B-cell lymphoma, suspension)	0.884	5.09	0.226	9.24	0.946	< 5.70	0.826	7.01
OPM-2 (myeloma, suspension)	0.993	< 5.00	0.992	< 7.30	0.993	< 5.70	0.983	< 6.70
SiHa (cervix, adherent)	0.983	< 5.00	0.783	7.61	0.945	< 5.70	0.985	< 6.70
KMRC-20 (kidney, adherent)	0.934	< 5.00	0.829	7.50	0.978	< 5.70	0.695	7.35
NALM-6 (B-cell leukaemia, suspension)	0.988	< 5.00	0.672	8.06	0.809	6.08	0.659	7.50

Cell Line	AUC (Dabrafenib)	pIC50 (Dabrafenib)	AUC (SN-38)	pIC50 (SN-38)	AUC (Axitinib)	pIC50 (Axitinib)	AUC (Methotrexate)	pIC50 (Methotrexate)
MEL-HO (melanoma, adherent)	0.068	> 7.41	0.686	7.98	0.986	< 5.70	0.958	< 6.70
NCI-H1963 (small cell lung carcinoma, suspension)					0.925	< 5.70	0.847	6.92
HT-1376 (bladder, adherent)	0.933	< 5.00	0.936	< 7.30	0.964	< 5.70	0.981	< 6.70
SK-UT-1 (soft tissue, adherent)	0.96	< 5.00	0.413	8.73	0.927	< 5.70	0.987	< 6.70
RPMI-6666 (Hodgkin lymphoma, suspension)			0.569	8.30	0.981	< 5.70	0.928	< 6.70
RT4 (bladder, adherent)	0.916	< 5.00	0.666	8.03	0.858	5.75	0.904	< 6.70
BC-1 (B-cell lymphoma, suspension)	0.764	5.51	0.571	8.33	0.987	< 5.70	0.848	6.93
NCI-H292 (lung adenocarcinoma, adherent)	0.846	5.01	0.569	8.30	0.817	5.84	0.96	< 6.70
KM-H2 (Hodgkin lymphoma, suspension)	0.987	< 5.00	0.934	< 7.30	0.988	< 5.70	0.967	< 6.70
SK-N-SH (neuroblastoma, adherent)	0.976	< 5.00	0.382	8.83	0.861	5.78	0.986	< 6.70
RXF393 (kidney, adherent)	0.816	5.07	0.623	8.11	0.893	< 5.70	0.978	< 6.70
T98G (glioma, adherent)	0.987	< 5.00	0.691	7.99	0.947	< 5.70	0.988	< 6.70
EW-13 (Ewing sarcoma, suspension)	0.983	< 5.00	0.746	7.76	0.983	< 5.70	0.975	< 6.70
KASUMI-1 (acute myeloid leukaemia, suspension)	0.681	5.70	0.785	7.67	0.225	7.71	0.826	6.92
UACC-893 (breast, adherent)	0.98	< 5.00	0.808	7.43	0.975	< 5.70	0.927	< 6.70
SU-DHL-6 (B-cell lymphoma, suspension)	0.944	< 5.00	0.767	7.85	0.953	< 5.70	0.632	7.58
SNU-449 (liver, adherent)	0.966	< 5.00	0.955	< 7.30	0.946	< 5.70	0.942	< 6.70
SNU-C1 (large intestine, suspension)	0.937	< 5.00	0.917	< 7.30	0.979	< 5.70	0.81	6.76
DOHH-2 (B-cell lymphoma, suspension)					0.955	< 5.70	0.622	7.57
LB2241-RCC (kidney, adherent)	0.572	6.00	0.555	8.35	0.954	< 5.70	0.984	< 6.70
ME-1 (acute myeloid leukaemia, suspension)	0.947	< 5.00	0.969	< 7.30	0.98	< 5.70	0.982	< 6.70
EB-3 (Burkitt lymphoma, suspension)	0.967	< 5.00	0.815	7.48	0.984	< 5.70	0.854	< 6.70

Cell Line	AUC (Dabrafenib)	pIC50 (Dabrafenib)	AUC (SN-38)	pIC50 (SN-38)	AUC (Axitinib)	pIC50 (Axitinib)	AUC (Methotrexate)	pIC50 (Methotrexate)
MOLP-8 (myeloma, suspension)	0.832	5.22	0.572	8.31	0.953	< 5.70	0.953	< 6.70
DG-75 (Burkitt lymphoma, suspension)	0.905	< 5.00	0.895	< 7.30	0.934	< 5.70	0.497	7.91
GT3TKB (stomach, adherent)	0.962	< 5.00	0.284	9.08	0.945	< 5.70	0.977	< 6.70
SW1271 (small cell lung carcinoma, adherent)	0.905	< 5.00	0.721	7.83	0.953	< 5.70	0.971	< 6.70
OVTOKO (ovary, adherent)	0.813	5.14	0.847	< 7.30	0.892	< 5.70	0.836	6.73
CA46 (Burkitt lymphoma, suspension)	0.866	< 5.00	0.898	< 7.30	0.984	< 5.70	0.836	6.83
MDA-MB-361 (breast, adherent)	0.983	< 5.00	0.95	< 7.30	0.981	< 5.70	0.986	< 6.70
CL-11 (large intestine, adherent)	0.914	< 5.00	0.847	7.36	0.958	< 5.70	0.919	< 6.70
BT-474 (breast, adherent)	0.946	< 5.00	0.95	< 7.30	0.983	< 5.70		
RL (B-cell lymphoma, suspension)	0.94	< 5.00	0.931	< 7.30	0.963	< 5.70		
MDA-MB-453 (breast, adherent)	0.975	< 5.00	0.706	7.89	0.982	< 5.70		
MM1S (myeloma, suspension)					0.988	< 5.70	0.64	7.53
SUP-B15 (lymphoblastic leukaemia, suspension)					0.698	6.36	0.772	7.13
C-4-I (cervix, adherent)			0.655	8.06	0.857	5.73	0.986	< 6.70
MDA-MB-436 (breast, adherent)	0.965	< 5.00	0.581	8.26	0.977	< 5.70		
Daudi (Burkitt lymphoma, suspension)	0.921	< 5.00	0.641	8.14	0.991	< 5.70		
Raji (Burkitt lymphoma, suspension)	0.982	< 5.00	0.47	8.59	0.988	< 5.70		
ARH-77 (myeloma, suspension)	0.968	< 5.00	0.503	8.50	0.977	< 5.70		
RKO (large intestine, adherent)	0.667	5.76	0.526	8.44	0.988	< 5.70		
OCI-AML2 (acute myeloid leukaemia, suspension)	0.836	5.36	0.54	8.41	0.982	< 5.70		
PA-1 (ovary, adherent)					0.923	5.71	0.991	< 6.70

pIC50: −log10 of the molar value. IC50 is the fitted dose that halves viability relative to control wells, and lower means more sensitive; fits outside the tested doses are given as limits. For AUC the same curve is integrated over the 256-fold range of doses and scaled to a fraction; values near 1 show little effect. For some assays here: The top dose, if marked as inferred, is not printed in the source and was worked back from the curve model.
